{"source": "PubChem BioAssay AID488969", "about": "(Vanderbilt High Throughput Screening Facility, 2010)", "note": "Whole data set: some 110,000 compounds, median “z-score” near -0.1, cut for the highest 2% near 2. This is one part of the list."}
{"target": "Metabotropic glutamate receptor 8 (Rattus norvegicus) (UniProt P70579)", "sequence (P70579 whole entry, looked up)": "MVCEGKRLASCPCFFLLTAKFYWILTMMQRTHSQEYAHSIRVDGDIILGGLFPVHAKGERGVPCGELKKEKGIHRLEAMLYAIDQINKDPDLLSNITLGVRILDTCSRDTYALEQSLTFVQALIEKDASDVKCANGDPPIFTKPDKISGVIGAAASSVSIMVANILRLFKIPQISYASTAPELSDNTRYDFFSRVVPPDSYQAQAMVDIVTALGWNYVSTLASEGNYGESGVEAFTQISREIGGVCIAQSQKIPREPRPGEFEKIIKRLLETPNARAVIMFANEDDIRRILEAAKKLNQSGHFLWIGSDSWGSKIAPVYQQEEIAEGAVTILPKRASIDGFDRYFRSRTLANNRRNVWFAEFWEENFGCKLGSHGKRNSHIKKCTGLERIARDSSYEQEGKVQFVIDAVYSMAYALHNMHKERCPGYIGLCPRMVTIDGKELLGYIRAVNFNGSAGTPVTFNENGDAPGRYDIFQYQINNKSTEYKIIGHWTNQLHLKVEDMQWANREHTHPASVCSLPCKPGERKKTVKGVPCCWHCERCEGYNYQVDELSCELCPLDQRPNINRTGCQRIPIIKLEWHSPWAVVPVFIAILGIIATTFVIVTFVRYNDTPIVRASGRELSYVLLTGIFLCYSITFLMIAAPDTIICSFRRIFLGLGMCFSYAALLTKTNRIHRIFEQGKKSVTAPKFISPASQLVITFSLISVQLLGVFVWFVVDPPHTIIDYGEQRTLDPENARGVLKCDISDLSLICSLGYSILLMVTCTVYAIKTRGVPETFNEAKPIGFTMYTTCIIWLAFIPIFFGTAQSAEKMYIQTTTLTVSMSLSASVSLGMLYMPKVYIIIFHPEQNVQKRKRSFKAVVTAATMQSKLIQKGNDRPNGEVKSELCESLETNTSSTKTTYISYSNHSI", "experiment": "rat mGluR8 modulators via GIRK flux, primary screen, cell-based, thallium flux, HTS (AID 488969)", "settings": "HEK293 rat mGluR8, GIRK (G protein-gated inwardly rectifying potassium channel) thallium flux, FluoZin2; at 10 µM; stronger effect = higher value; submaximal glutamate (EC20) added with thallium"}
{"smiles": "CCOC(=O)C1=C(C)NC(C)=C(C(=O)OCC)C1/C=C/c1ccccc1", "z-score": -0.151}
{"smiles": "C/C(Cn1cnc([N+](=O)[O-])n1)=N\\NC(=O)c1ccccc1F", "z-score": -0.585}
{"smiles": "CCn1cc(C(=O)N2CCCC2)c(=O)c2cc(S(=O)(=O)N3CCOCC3)ccc21", "z-score": 0.161}
{"smiles": "COC(=O)c1cc(NC(=O)/C=C/c2ccc3c(c2)OCO3)cc(C(=O)OC)c1", "z-score": 0.169}
{"smiles": "O=c1[nH]ncc(N2CCCCC2)c1Cl", "z-score": -0.0583}
{"smiles": "CC(C)C(=O)NC(=S)Nc1nnn(C)n1", "z-score": 0.169}
{"smiles": "S=c1[nH]nc(-c2ccc(Cl)cc2)n1CC1CCCO1", "note": "(stereo not drawn)", "z-score": -0.0607}
{"smiles": "COc1ccccc1-c1nc(-c2ccc(C)nc2OC)no1", "z-score": 0.471}
{"smiles": "COc1ccc2[nH]cc(CCCN3C(=O)c4ccccc4C3=O)c2c1", "z-score": -0.421}
{"smiles": "COCCNS(=O)(=O)c1ccc2c(c1)n(C)c(=O)n2C", "z-score": -0.36}
{"smiles": "O=C(Cc1cccc2ccccc12)Nc1ccc(OC(F)F)c(Cl)c1", "z-score": -0.229}
{"smiles": "O=S(=O)(c1ccc(OCC(O)CN2CCC(Cc3ccccc3)CC2)cc1)N1CCOCC1", "note": "(stereo not drawn)", "z-score": 0.46}
{"smiles": "CC(=O)N(CCC(c1ccccc1)c1ccco1)Cc1cccs1", "note": "(stereo not drawn)", "z-score": -0.43}
{"smiles": "CCCOC(=O)Cc1c(O)c2ccccc2[nH]c1=O", "z-score": 0.0438}
{"smiles": "Cn1c(=O)oc2cc(S(=O)(=O)N3CCCC3)ccc21", "z-score": 0.418}
{"smiles": "O=C(c1cccs1)N1CCC(Cc2ccccc2)CC1", "z-score": -0.883}
{"smiles": "COc1ccccc1N1CCN(C(=O)Cn2nnc(-c3ccncc3)n2)CC1", "z-score": -0.132}
{"smiles": "COc1ccc(C(=O)Nc2ccc(S(=O)(=O)NC(C)=O)cc2)cc1", "z-score": 0.789}
{"smiles": "CCC(Sc1nc2ccccc2c(=O)n1CCN1CCOCC1)C(=O)NCc1cccnc1", "note": "(stereo not drawn)", "z-score": 0.584}
{"smiles": "O=C(CN1CCN(c2ccccn2)CC1)Nc1ccccc1", "z-score": -0.124}
{"smiles": "CCCCNCc1cccn1-c1ccccc1", "z-score": 0.442}
{"smiles": "O=C(NNC(=S)NCc1ccco1)c1ccc(Cl)s1", "z-score": -0.1}
{"smiles": "Cc1ccccc1CN(c1ccc(C(N)=O)cc1)S(C)(=O)=O", "z-score": -0.0764}
{"smiles": "O=C(c1ccccc1)c1ccc2nc[nH]c2c1", "z-score": -0.0172}
{"smiles": "CCOC(=O)CCc1c(C)nc(SCCCn2c(=O)[nH]c3ccccc32)c(C#N)c1C", "z-score": 0.244}
{"smiles": "COc1ccc(/C(O)=C2/C(=O)C(=O)N(CCN(C)C)C2c2ccc(F)cc2)cc1Cl", "note": "(stereo not drawn)", "z-score": -0.506}
{"smiles": "O/N=C(\\c1ccc(Cl)cc1)c1ncc(C(F)(F)F)cc1Cl", "z-score": -0.192}
{"smiles": "CCCC12CN(C(=O)c3ccc(OC)cc3)CC(C)(CN(C(=O)c3ccc(OC)cc3)C1)C2=O", "z-score": -0.972}
{"smiles": "CCOC(=O)c1c(C)oc2c1c(C(c1cccnc1)N1CCCCC1)c(O)c1ccccc12", "note": "(stereo not drawn)", "z-score": 0.027}
{"smiles": "Cc1nc2cc(CO)ccc2s1", "z-score": -0.117}
{"smiles": "CC1=C/C(=C/N(C)c2ccccc2)C(=O)S1", "z-score": -0.177}
{"smiles": "O=C(N/N=C/c1cccs1)c1ccc2c(c1)OCO2", "z-score": 0.898}
{"smiles": "COc1ccc2[nH]c3c(N4CC(C)OC(C)C4)ncnc3c2c1", "note": "(stereo not drawn)", "z-score": -0.534}
{"smiles": "Nc1c(C(=O)CCC(=O)O)oc2ccc(Cl)cc12", "z-score": -0.818}
{"smiles": "CC(Sc1nnc(N)s1)c1ccccc1Cl", "note": "(stereo not drawn)", "z-score": -0.255}
{"smiles": "Cc1ccc(NC(=O)COC(=O)c2ccc3c(c2)NC(=O)C2CCCN32)cc1", "note": "(stereo not drawn)", "z-score": -0.114}
{"smiles": "CCOC(=O)C1=C(C)SC2=NS(=O)(=O)CCN21", "z-score": -0.0485}
{"smiles": "CCN(c1ccccc1)S(=O)(=O)c1ccc(N)c(OC)c1", "z-score": 0.221}
{"smiles": "COc1cccc(NC(=O)CCP(C)(=O)O)c1", "z-score": -0.0855}
{"smiles": "Cc1ccc(S(=O)(=O)Nc2cccc(-c3cn4ccsc4n3)c2)cc1", "z-score": -0.494}
{"smiles": "Cc1ccc2nc(-c3ccc(NC(=O)COC(=O)c4cncc(Br)c4)cc3)sc2c1", "z-score": 0.0616}
{"smiles": "Cc1ccc(CSCCNS(=O)(=O)c2ccc(C)cc2)cc1", "z-score": -0.638}
{"smiles": "O=C(c1ccccc1F)N(Cc1ccccc1)C1CCS(=O)(=O)C1", "note": "(stereo not drawn)", "z-score": -0.0428}
{"smiles": "CCCCC(=O)Nc1cccc(-c2cn3ccccc3n2)c1", "z-score": -0.223}
{"smiles": "O=C(Nc1cc(Cl)ccc1N1CCCCC1)c1cccs1", "z-score": -0.311}
{"smiles": "Cc1nn(-c2ccccc2)c2sc(C(=O)N3CCOCC3)cc12", "z-score": -0.72}
{"smiles": "CCCCCCCOC1(c2ccccc2)OC(=O)c2ccccc21", "note": "(stereo not drawn)", "z-score": -0.11}
{"smiles": "COc1ccc(-c2cn3cccnc3n2)cc1Br", "z-score": -0.109}
{"smiles": "CCOC(=O)c1c(N)c(C#N)c2n1CCCCC2", "z-score": 0.122}
{"smiles": "CC(C)Sc1nc2c(c(=O)n1-c1ccc(F)cc1)SCC2", "z-score": -0.98}
{"smiles": "Cc1ccc(-c2noc(CSc3nnnn3-c3ccccc3)n2)cc1", "z-score": -0.581}
{"smiles": "O=S(=O)(CC(CN1CCCC1)N1CCCC1)c1ccc2ccccc2c1", "note": "(stereo not drawn)", "z-score": -1.7}
{"smiles": "O=C(Nc1cccc(C(F)(F)F)c1)C(SCCO)c1ccccc1", "note": "(stereo not drawn)", "z-score": -0.0903}
{"smiles": "CCC(=O)NCCc1nc2cc(NC(=O)c3ccccc3OC)ccc2n1C", "z-score": -0.174}
{"smiles": "Cc1ccccc1CS(=O)(=O)c1nnc([C@H](Cc2ccccc2)NC(=O)OC(C)(C)C)o1", "z-score": -1.16}
{"smiles": "Cc1ccc(Oc2nnc(-c3cccs3)c3ccccc23)cc1", "z-score": -0.167}
{"smiles": "CC(=O)Nc1ccc(OC(=O)c2cc3cc(Br)ccc3oc2=O)cc1", "z-score": -0.0759}
{"smiles": "CC(C)(C)c1cc[n+](/C(C(=S)NC2CC2)=C(/[O-])c2ccc(Cl)s2)cc1", "z-score": -0.275}
{"smiles": "COc1ccc(N(CC(=O)N/N=C/c2ccc(-c3ccc([N+](=O)[O-])cc3)o2)S(=O)(=O)c2ccc(C)cc2)cc1Cl", "z-score": -0.151}
{"smiles": "Cc1ccc(C2C(/C=C3/SC(=S)NC3=O)=C(c3cccs3)Oc3ccccc32)cc1", "note": "(stereo not drawn)", "z-score": 2.55}
{"smiles": "CN1c2ccccc2C(O)=C(C(=S)Nc2ccccc2)S1(=O)=O", "z-score": -0.0251}
{"smiles": "COc1cc(OC)c(N2CC34C=CC(O3)C(C(=O)O)C4C2=O)cc1Cl", "note": "(stereo not drawn)", "z-score": 0.0804}
{"smiles": "Cc1ccnc2ccc(-c3nc4ccccc4o3)cc12", "z-score": -0.172}
{"smiles": "CCN1CCN(S(=O)(=O)c2cc(C)c(OC)cc2C)CC1", "z-score": -0.16}
{"smiles": "Cc1cccc(C)c1Nc1nnc(SCC(=O)NC(=O)c2cccn2C)s1", "z-score": -2.05}
{"smiles": "CCNC(=S)N1CCN(C(=O)c2ccco2)CC1", "z-score": 0.0228}
{"smiles": "Cc1cccc(N(C(=O)Cc2cccs2)C(C(=O)NC2CCCC2)c2ccsc2)c1", "note": "(stereo not drawn)", "z-score": -0.147}
{"smiles": "CSc1ccc(-c2nnn(Cc3ccc(C)cc3)n2)cc1", "z-score": -0.327}
{"smiles": "CC(=O)N1CCN(c2ccc(NC(=O)C(C)Oc3ccc(Cl)cc3Cl)cc2)CC1", "note": "(stereo not drawn)", "z-score": 0.0136}
{"smiles": "COc1ccc(/C=C/C(=O)NC(=S)Nc2ccc(S(=O)(=O)Nc3nccnc3OC)cc2)cc1", "z-score": 0.291}
{"smiles": "O=C1C=C(OCc2ccccc2)CN1", "z-score": 1.32}
{"smiles": "O=C(Nc1cc(Cl)ccc1Oc1ccccc1)c1cnccn1", "z-score": 0.264}
{"smiles": "COc1cc(C(=O)Oc2cccc(C)c2)cc(OC)c1OC", "z-score": 0.178}
